Results: the antibiotic and cytotoxicity screens of Wong et al. (2023)
The other results are listed elsewhere or left out.

Legend:
[1] = tested on: HSkMC (human skeletal muscle cells); test: cytotoxicity call (relative viability < 0.9); conditions: 10 µM
[2] = tested on: HepG2; test: cytotoxicity call (relative viability < 0.9); conditions: 10 µM
[3] = tested on: S. aureus RN4220; test: growth inhibition call (relative growth <= 0.2); conditions: 50 µM

O=C(Nc1ccc(Cl)cc1)c1sc2ccccc2c1Cl
inactive: cytotoxicity call [1] | cytotoxicity call [2] | growth inhibition call [3]

C[C@H]1CN([C@@H](C)CO)C(=O)c2cc(NS(=O)(=O)c3ccc(F)cc3)ccc2O[C@H]1CN(C)Cc1ccc(Cl)c(Cl)c1
inactive: cytotoxicity call [1] | cytotoxicity call [2] | growth inhibition call [3]

COc1cccc(CNC(=O)C[C@@H]2C=C[C@@H](NC(=O)C3CCOCC3)[C@H](CO)O2)c1
inactive: cytotoxicity call [1] | cytotoxicity call [2] | growth inhibition call [3]

C[C@H](CO)N1C[C@H](C)[C@@H](CN(C)CC2CCOCC2)Oc2ncc(C#CCc3ccccc3)cc2C1=O
inactive: cytotoxicity call [1] | cytotoxicity call [2] | growth inhibition call [3]

CC(C)NC(=O)Nc1ccc2c(c1)C(=O)N([C@H](C)CO)C[C@H](C)[C@@H](CN(C)Cc1ccc(Oc3ccccc3)cc1)O2
inactive: cytotoxicity call [1] | cytotoxicity call [2] | growth inhibition call [3]

C[C@@H]1CN([C@@H](C)CO)C(=O)Cc2cc(NC(=O)CCC(F)(F)F)ccc2O[C@H]1CN(C)S(C)(=O)=O
inactive: cytotoxicity call [1] | cytotoxicity call [2] | growth inhibition call [3]

C[C@H]1CN([C@@H](C)CO)S(=O)(=O)c2ccc(Br)cc2O[C@H]1CN(C)C(=O)c1cccnc1
inactive: cytotoxicity call [1] | cytotoxicity call [2] | growth inhibition call [3]

C[C@H](CO)N1C[C@H](C)[C@H](CN(C)S(=O)(=O)c2cn(C)cn2)Oc2ccc(NC(=O)NC3CCCCC3)cc2CC1=O
inactive: cytotoxicity call [1] | cytotoxicity call [2] | growth inhibition call [3]

Nc1nonc1/C(=N/O)N1CCCCC1
inactive: cytotoxicity call [1] | cytotoxicity call [2] | growth inhibition call [3]

O=C1CSCC(=O)N1c1cccnc1
inactive: cytotoxicity call [1] | cytotoxicity call [2] | growth inhibition call [3]

Cc1ccc(S(=O)(=O)Nc2ccc3c(c2)C(=O)N([C@H](C)CO)C[C@@H](C)[C@@H](CN(C)C(=O)Cc2ccccc2)OCCCC[C@@H](C)O3)cc1
inactive: cytotoxicity call [1] | cytotoxicity call [2] | growth inhibition call [3]
